The nature of assay [1]: qHTS Assay for Lipid Storage Modulators (AID 1519). To be noted: Drosophila S3 cells, BODIPY lipid droplet/cell ratio, laser cytometry, cells loaded with oleic acid. The procedure, abridged: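 Cells seeded at 5,000 per well were treated with compounds over a concentration series and loaded with oleic acid (400 uM, as added). Lipid droplet fluorescence (488 nm excitation, 500-530 nm channel) was read by laser-scanning cytometry and normalized to 20 uM Triacsin C.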

Assay [2] is described as follows: qHTS Assay for Modulators of Human Peripheral Myelin Protein 22 (PMP22) Expression/Activity (AID 1967). To be noted: Cell-based PMP22 reporter, dual-color luciferase ratio. The procedure, abridged: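 Quantitative HTS in a mouse Schwann cell line expressing dual click beetle luciferases: Pmp22 promoter (green) and control EF-alpha promoter (red). After 24h treatment, corrected green/red signal ratio gave %Activity relative to untreated cells.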
On the technique in general: qHTS replaces the single test concentration by a dilution series.

The nature of assay [3]: qHTS Validation Assay to Find Inhibitors of Chronic Active B-Cell Receptor Signaling (AID 485345). The note with it: ABC-DLBCL cells, chronic BCR signaling reporter. In short, it runs like this: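 TMD8 ABC-DLBCL cells stably carrying doxycycline-inducible IkappaBalpha–green luciferase fusion plus unfused red luciferase; compounds 46 uM to 3 nM, 4 h at 37C with doxycycline. Corrected green/red luminescence ratio normalized to 10 uM MG-132 and basal cell wells; curves fitted.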

Assay [4] is described as follows: NCATS anti-infectives library activity on the primary C. elegans qHTS viability assay (AID 1745855). The note with it: C. elegans worm area imaging, day 7; measured here: worm number, day 3. The procedure, abridged: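 GFP read-out by 488 nm laser cytometry at day 0, 3 and 7, gated on object perimeter, area and peak intensity, scored viability of PE254-GFP-FLuc worms exposed to compound in S medium with bacterial capsules at 21 °C.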

Assay [5] is described as follows: Nrf2 qHTS screen for inhibitors: Validation (AID 493153). The note with it: A549 ARE-Fluc reporter, 18-24 h; AC50: CellTiter-Fluor fluorescence read, measured here: cytotoxicity CellTiter-Fluor AC50; viability change: measured here: cytotoxicity max response. The procedure, abridged: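 Concentration-response on A549 ARE_Fluc reporter cells exposed 18-24 h at 37 C, 5% CO2. Cytotoxicity read first by CellTiter-Fluor fluorescence (Ex 405/Em 525), then Nrf2 inhibition by BugLite luminescence after 15 min.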

Assay [6] can be described thus: qHTS for identification of novel therapeutic agents for treatment of microphthalmiaassociated transcription factor (MiT) renal cell carcinoma (RCC) (AID 1963991). The note with it: CellTiter-Glo, 48 h; for z-score: stronger effect = lower value. In short, it runs like this: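 Three TFE3-fusion RCC lines (UOK109, UOK124, UOK145), 500 cells/well in complete medium, were treated with MIPE 4.0 compounds for 48 hours at 37 C. Viability was by CellTiter-Glo luminescence, normalized to DMSO (100%) and empty wells (0%); curves fitted over 11 concentrations.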

A short description of assay [7]: qHTS assay for small molecule agonists of retinoid X receptor alpha signaling (AID 588544). To be noted: HEK293T RXRa-UAS-bla, beta-lactamase reporter, 18 h; 530 nm emission.
[8] abbreviates: measured here: cell count channel max response.
Where [9] appears, read: measured here: lipid (BODIPY) channel AC50.
[10] abbreviates: measured here: lipid channel max response.
Where [11] appears, read: measured here: red reporter channel AC50, EF-alpha promoter control reporter in MSC80 mouse Schwann cells.
The mark [12] stands for this setting: measured here: cell number channel AC50.
Setting [13] is: measured here: CBG/CBR ratio read-out.
Where [14] appears, read: TFE3-RCC UOK109 viability, measured here: UOK109 Z-AUC.
Where [15] appears, read: TFE3-RCC viability, measured here: UOK124 Z-AUC.
[16] abbreviates: TFE3-RCC viability, measured here: UOK124 cell viability.
The mark [17] stands for this setting: TFE3-RCC viability, measured here: UOK145 Z-AUC.
Setting [18] is: TFE3-RCC viability, measured here: UOK145 cell viability.

“And” between values parts separate entries of the source, which are not always exact repeats. Identical values can stand only once. Some of the results follow. These are further read-outs of the screen, such as a control signal, another cell line or another target. No call is given for them. The list favours compounds with an active or inconclusive main result. For some of these results: The note in brackets gives the kind of curve behind each potency; many fits are weak.
Tags describe the fitted curve by direction and shape.

Consider `O=C(O)CCCCCCCC(=O)O`, for which the max response in assay [1] (setting [8]) is 22.9% and 54.2%; in assay [1] (setting [10]), 35.8% and 53.1%. The concentration at half-maximal activity (AC50) (usually the concentration giving half of the maximal activity seen) in assay [1] (setting [9]) is 28.2 µM [rising, single point]; in assay [2] (setting [11]), 95.3 µM [falling, single point].
`N#C/C(=C\c1ccc(O)c(O)c1)C(=O)NCCCc1ccccc1`: the max response is 36.9% and -35.7% in assay [1] (setting [8]); 7.21% and -53% in assay [1] (setting [10]). For the same molecule, the concentration at half-maximal activity (AC50) in assay [1] (setting [12]) is 14.1 µM [rising, partial curve, poor fit] and 25.1 µM [falling, partial curve, poor fit]; in assay [2] (setting [11]) it was 19 µM [falling, full curve]; in assay [3] (setting [13]) it was 9.2 µM [falling, partial curve]; in assay [3] (measured here: CBR control luciferase (viability counter)), 14.6 µM [falling, partial curve]; in assay [4], 25.8 µM [falling, single point].
Turning to `NCCCC(N)(C(=O)O)C(F)F` (centres undefined), the max response in assay [1] (setting [8]) came out at 35.2%; in assay [1] (setting [10]), 36.7%. For the same molecule, the half-maximal activity concentration (AC50) is 14.1 µM [falling, partial curve, poor fit] in assay [1] (setting [12]); 37.9 µM [falling, partial curve, poor fit] in assay [2] (setting [11]); 0.743 µM [falling, partial curve, poor fit] in assay [6] (setting [16]). In assay [5], this molecule had a viability change of 4.44%. Besides, the z-score is 0.344 in assay [6] (setting [14]), 0.855 in assay [6] (setting [15]) and 0.555 in assay [6] (setting [17]).
For the molecule `NC(=O)CC[C@H](N)C(=O)O`, the max response in assay [1] (setting [8]) is 26.5% and 38%; in assay [1] (setting [10]), 44.9% and 37.1%. The half-maximal activity concentration (AC50) in assay [1] (setting [9]) is 22.4 µM [rising, partial curve, poor fit]; in assay [2] (setting [11]), 84.9 µM [falling, single point].
Take `CCOC(=O)c1ncn2c1CN(C)C(=O)c1cc(F)ccc1-2`: the max response turned out to be 45.3% in assay [1] (setting [8]) and 47.4% in assay [1] (setting [10]). In addition, the half-maximal activity concentration (AC50) in assay [1] (setting [9]) is 0.01 µM [falling, full curve, poor fit]; in assay [6] (setting [18]) it was 0.187 µM [rising, full curve]. Moreover, the z-score in assay [6] (setting [14]) is -0.981; in assay [6] (setting [15]) it was 0.415; in assay [6] (setting [17]) it was -0.96.
Take `CC(C)OC(=O)C(C)(C)Oc1ccc(C(=O)c2ccc(Cl)cc2)cc1`: the max response is 16% and 46.7% in assay [1] (setting [8]); 36.7% and 47.2% in assay [1] (setting [10]); 10.3% in assay [7]. In addition, the half-maximal activity concentration (AC50) in assay [1] (setting [9]) is 39.8 µM [rising, single point]; in assay [2] (measured here: green reporter channel AC50, mouse Pmp22 promoter in mouse Schwann cells), 95.3 µM [falling, single point]; in assay [2] (setting [11]) it was 95.3 µM [falling, single point]. Besides, the figures for the z-score in assay [6] (setting [14]), in assay [6] (setting [15]) and in assay [6] (setting [17]) were 0.148, 0.372 and 0.296, respectively.
Take `CC(=O)[C@H]1CC[C@H]2[C@@H]3CCC4=CC(=O)CC[C@]4(C)[C@H]3CC[C@]12C`: the max response in assay [1] (setting [8]) was 79.2%; in assay [1] (setting [10]), 124%. Moreover, the half-maximal activity concentration (AC50) in assay [1] (setting [9]) was 12.6 µM [rising, partial curve]; in assay [3] (setting [13]), 16.4 µM [falling, partial curve]; in assay [6] (setting [16]) it was 18.7 µM [falling, partial curve, poor fit]; in assay [6] (setting [18]), 4.18 µM [falling, full curve]. In addition, the z-score was 1.13 in assay [6] (setting [14]), 0.232 in assay [6] (setting [15]) and -2.84 in assay [6] (setting [17]).
